The supplement of paper PMC8728848
Some of the results follow.

Experiments:
Test in all cases: glycan array binding signal (z-score within array); higher = stronger binding
Conditions in all cases: glycan notation: IUPAC condensed, linker removed
[1] = biological target: Fuc(a1-2)[GalNAc(a1-3)]Gal(b1-3)GalNAc(b1-3)Gal(a1-4)Gal(b1-4)Glc
Outline: (§1)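 Columns mapping to the same glycan were averaged after glycan names were converted to IUPAC-condensed notation. The data come from 3228 arrays in the Consortium for Functional Glycomics database, limited to those with an available protein sequence. Binding is reported as a within-array Z-score averaged across arrays of one protein sequence and across linkers.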

[2] = biological target: Fuc(a1-2)[GalNAc(a1-3)]Gal(b1-3)GlcNAc
Outline: as §1

[3] = biological target: Fuc(a1-2)[GalNAc(a1-3)]Gal(b1-3)GlcNAc(b1-2)Man(a1-3)[Fuc(a1-2)[GalNAc(a1-3)]Gal(b1-3)GlcNAc(b1-2)Man(a1-6)]Man(b1-4)GlcNAc(b1-4)GlcNAc
Outline: as §1

[4] = biological target: Fuc(a1-2)[GalNAc(a1-3)]Gal(b1-3)GlcNAc(b1-2)Man(a1-3)[Fuc(a1-2)[GalNAc(a1-3)]Gal(b1-3)GlcNAc(b1-2)Man(a1-6)]Man(b1-4)GlcNAc(b1-4)[Fuc(a1-6)]GlcNAc
Outline: as §1

[5] = biological target: Fuc(a1-2)[GalNAc(a1-3)]Gal(b1-3)GlcNAc(b1-3)GalNAc
Outline: as §1

[6] = biological target: Fuc(a1-2)[GalNAc(a1-3)]Gal(b1-3)GlcNAc(b1-6)GalNAc
Outline: as §1

[7] = biological target: Fuc(a1-2)[GalNAc(a1-3)]Gal(b1-4)Glc
Outline: as §1

[8] = biological target: Fuc(a1-2)[GalNAc(a1-3)]Gal(b1-4)GlcNAc
Outline: as §1

[9] = biological target: Fuc(a1-2)[GalNAc(a1-3)]Gal(b1-4)GlcNAc(b1-2)Man
Outline: as §1

[10] = biological target: Fuc(a1-2)[GalNAc(a1-3)]Gal(b1-4)GlcNAc(b1-2)Man(a1-3)[Fuc(a1-2)[GalNAc(a1-3)]Gal(b1-4)GlcNAc(b1-2)Man(a1-6)]Man(b1-4)GlcNAc(b1-4)GlcNAc
Outline: as §1

[11] = biological target: Fuc(a1-2)[GalNAc(a1-3)]Gal(b1-4)GlcNAc(b1-2)Man(a1-3)[Fuc(a1-2)[GalNAc(a1-3)]Gal(b1-4)GlcNAc(b1-2)Man(a1-6)]Man(b1-4)GlcNAc(b1-4)[Fuc(a1-6)]GlcNAc
Outline: as §1

[12] = biological target: Fuc(a1-2)[GalNAc(a1-3)]Gal(b1-4)GlcNAc(b1-3)Gal(b1-4)GlcNAc
Outline: as §1

[13] = biological target: Fuc(a1-2)[GalNAc(a1-3)]Gal(b1-4)GlcNAc(b1-3)Gal(b1-4)GlcNAc(b1-3)Gal(b1-4)GlcNAc
Outline: as §1

[14] = biological target: Fuc(a1-2)[GalNAc(a1-3)]Gal(b1-4)GlcNAc(b1-3)GalNAc
Outline: as §1

[15] = biological target: Fuc(a1-2)[GalNAc(a1-3)]Gal(b1-4)GlcNAc(b1-3)[Fuc(a1-2)[GalNAc(a1-3)]Gal(b1-4)GlcNAc(b1-6)]GalNAc
Outline: as §1

[16] = biological target: Fuc(a1-2)[GalNAc(a1-3)]Gal(b1-4)GlcNAc(b1-6)GalNAc
Outline: as §1

[17] = biological target: Fuc(a1-2)[GalNAc(a1-3)]Gal(b1-4)[Fuc(a1-3)]GlcNAc
Outline: as §1

[18] = biological target: Fuc(a1-2)[GalNAc(a1-3)]Gal(b1-4)[Fuc(a1-3)]GlcNAc(b1-3)GalNAc
Outline: as §1

[19] = biological target: Fuc(a1-2)[GalNAc(a1-4)]Gal(b1-4)GlcNAc
Outline: as §1

[20] = biological target: Fuc(a1-2)[GalNAc(b1-3)]Gal
Outline: as §1

[21] = biological target: Fuc(a1-3)GlcNAc
Outline: as §1

[22] = biological target: Fuc(a1-3)[Gal(b1-4)]Glc6S
Outline: as §1

[23] = biological target: Fuc(a1-3)[Gal(b1-4)]GlcNAc
Outline: as §1

[24] = biological target: Fuc(a1-3)[Gal(b1-4)]GlcNAc(b1-2)Man
Outline: as §1

[25] = biological target: Fuc(a1-3)[Gal(b1-4)]GlcNAc(b1-2)Man(a1-3)[Fuc(a1-3)[Gal(b1-4)]GlcNAc(b1-2)Man(a1-6)]Man(b1-4)GlcNAc(b1-4)GlcNAc
Outline: as §1

[26] = biological target: Fuc(a1-3)[Gal(b1-4)]GlcNAc(b1-2)Man(a1-3)[Fuc(a1-3)[Gal(b1-4)]GlcNAc(b1-2)Man(a1-6)]Man(b1-4)GlcNAc(b1-4)[Fuc(a1-6)]GlcNAc
Outline: as §1

[27] = biological target: Fuc(a1-3)[Gal(b1-4)]GlcNAc(b1-3)Gal(b1-3)[Fuc(a1-4)]GlcNAc
Outline: as §1

[28] = biological target: Fuc(a1-3)[Gal(b1-4)]GlcNAc(b1-3)Gal(b1-4)[Fuc(a1-3)]GlcNAc
Outline: as §1

[29] = biological target: Fuc(a1-3)[Gal(b1-4)]GlcNAc(b1-3)Gal(b1-4)[Fuc(a1-3)]GlcNAc(b1-3)Gal(b1-4)[Fuc(a1-3)]GlcNAc
Outline: as §1

[30] = biological target: Fuc(a1-3)[Gal(b1-4)]GlcNAc(b1-3)GalNAc
Outline: as §1

[31] = biological target: Fuc(a1-3)[Gal(b1-4)]GlcNAc(b1-4)Gal(b1-4)[Fuc(a1-3)]GlcNAc
Outline: as §1

[32] = biological target: Fuc(a1-3)[Gal(b1-4)]GlcNAc(b1-4)Gal(b1-4)[Fuc(a1-3)]GlcNAc(b1-4)Gal(b1-4)[Fuc(a1-3)]GlcNAc
Outline: as §1

[33] = biological target: Fuc(a1-3)[Gal(b1-4)]GlcNAc(b1-6)GalNAc
Outline: as §1

[34] = biological target: Fuc(a1-3)[Gal(b1-4)]GlcNAc(b1-6)[Gal(b1-3)GlcNAc(b1-3)]Gal(b1-4)Glc
Outline: as §1

[35] = biological target: Fuc(a1-3)[Gal(b1-4)]GlcNAc6S
Outline: as §1

[36] = biological target: Fuc(a1-3)[Gal3S(b1-4)]Glc
Outline: as §1

[37] = biological target: Fuc(a1-3)[Gal3S(b1-4)]GlcNAc
Outline: as §1

B1: MAL-II (Maackia amurensis), P93248 (protein)
chain: ATSNSKPTQVLLATFLTFFFLLLNNVNSSDELSFTINNFVPNEADLLFQGEASVSSTGVLQLTRVENGQPQQYSVGRALYAAPVRIWDNTTGSVASFSTSFTFVVKAPNPTITSDGLAFFLAPPDSQIPSGRVSKYLGLFNNSNSDSSNQIVAVEFDTYFGHSYDPWDPNYRHIGIDVNGIESIKTVQWDWINGGVAFATITYLAPNKTLIASLVYPSNQTSFIVAASVDLKEILPEWVRVGFSAATGYPTQVETHDVLSWSFTSTLEANSDAATENNVHIARYTA
- glycan array binding signal (z-score) [1]: -0.188
- glycan array binding signal (z-score) [2]: -0.208
- glycan array binding signal (z-score) [3]: -0.184
- glycan array binding signal (z-score) [4]: -0.256
- glycan array binding signal (z-score) [5]: -0.074
- glycan array binding signal (z-score) [6]: -0.266
- glycan array binding signal (z-score) [7]: -0.237
- glycan array binding signal (z-score) [8]: -0.223
- glycan array binding signal (z-score) [9]: -0.258
- glycan array binding signal (z-score) [10]: -0.255
- glycan array binding signal (z-score) [11]: -0.042
- glycan array binding signal (z-score) [12]: -0.177
- glycan array binding signal (z-score) [13]: -0.106
- glycan array binding signal (z-score) [14]: -0.13
- glycan array binding signal (z-score) [15]: -0.226
- glycan array binding signal (z-score) [16]: -0.23
- glycan array binding signal (z-score) [17]: -0.057
- glycan array binding signal (z-score) [18]: 1.84
- glycan array binding signal (z-score) [19]: -0.242
- glycan array binding signal (z-score) [20]: -0.209
- glycan array binding signal (z-score) [21]: -0.246
- glycan array binding signal (z-score) [22]: -0.152
- glycan array binding signal (z-score) [23]: -0.236
- glycan array binding signal (z-score) [24]: -0.179
- glycan array binding signal (z-score) [25]: -0.147
- glycan array binding signal (z-score) [26]: 0.714
- glycan array binding signal (z-score) [27]: -0.178
- glycan array binding signal (z-score) [28]: -0.217
- glycan array binding signal (z-score) [29]: -0.085
- glycan array binding signal (z-score) [30]: -0.171
- glycan array binding signal (z-score) [31]: -0.23
- glycan array binding signal (z-score) [32]: -0.249
- glycan array binding signal (z-score) [33]: -0.082
- glycan array binding signal (z-score) [34]: -0.034
- glycan array binding signal (z-score) [35]: -0.222
- glycan array binding signal (z-score) [36]: -0.231
- glycan array binding signal (z-score) [37]: -0.195
